As usually defined, the % Inhibition is the change of the read-out against control, counted positive when it falls.

The campaign covered roughly 150,000 compounds. About 540 (0.36%) showed an effect of 50% or more. The list shows a part of the results.

The subject of the test is Plasmodium falciparum. Briefly: Primary screen in NF54 nanoGlo assay, in single point, at 2uM, 72h; a lower Z score goes with more inhibition. The class given is functional, Erythrocyte. The note with it: timepoint 72 hour.
As for `C[C@@H](Cc1cncc2ccccc12)C(=O)N(C)c1cnn(C)c1`, the “% Inhibition” value worked out at 5% and the Z score is given as -0.54.
In the case of `CN(C)C(=O)c1cccc(CCN2C(=O)N[C@@H](C(C)(C)C)C2=O)c1`, the “% Inhibition” value stood at 0% and the Z score is reported as -0.04.
As to `Cc1cc(CNc2nnc(-c3ccc4c(c3)CCC4)o2)ccc1C#N`, the “% Inhibition” value was -1% and the Z score is on record as 0.16.
In the same order, the values of `CC(C)(C)c1ccc([C@@H](O)CNc2ncccc2S(C)(=O)=O)cc1` are -13% and 1.55.
For the compound `COCCn1ccc2c(OCC(=O)N3CCC[C@H]3c3nc4ccccc4n3C)cccc21`, the “% Inhibition” value is reported as -10% and the Z score was determined as 1.63.
Taken in the same sequence, the figures for `COCCN(CC(=O)N(C)C)c1cnc2cc(Cl)c(Cl)cc2n1` were -10% and 1.63.
With `Cc1c(C(=O)N[C@@H]2C=CCCC2)cccc1N1CCNC1=O`, the “% Inhibition” value amounted to 0% and the Z score is on record as -0.03.
In the same order, the values of `CN(Cc1nccn1CC(F)(F)F)C(=O)c1ccc(CNC(=O)c2cccs2)cc1` are 0% and 0.
Taken in the same sequence, the figures for `CC1=NS(=O)(=O)N(C)C=C1C(=O)OCc1nc(C2CCCCC2)no1` were -7% and 0.63.
Take `CCOc1ccnc(N(C)CCc2ccncc2)n1`: the “% Inhibition” value is given as -7% and the Z score is given as 1.25.
In the same order, the values of `CC(NC(=O)Cc1ccccc1C(=O)NC(C)c1ccncc1)c1ccncc1` (centres undefined) are -6% and 0.71.
In the same order, the values of `CN(C)CCOC(=O)CC[C@H]1CCOC(C)(C)C1` are 39% and -5.02.
Taken in the same sequence, the figures for `Cc1cc(S(=O)(=O)[C@H]2CS(=O)(=O)C[C@@H]2N2CCN(c3ccccc3F)CC2)ccc1F` were -7% and 0.92.
Regarding `CCOC(=O)[C@H]1CCCN(C(=O)CN2CCN(c3ccc(F)c(F)c3)C2=O)C1`, the “% Inhibition” value is listed as -12% and the Z score was found to be 1.4.
Taken in the same sequence, the figures for `OC[C@H]1CCCN1c1cccc(C(F)(F)F)n1` were -7% and 0.97.
Taken in the same sequence, the figures for `OC[C@@H](Cc1ccccc1)n1cnnc1` were -2% and 0.28.
In the same order, the values of `CC1CC1C(=O)NCc1cccc(NC(=O)NCc2ccncc2)c1` (centres undefined) are 0% and -0.06.
For `Cc1ccc([C@@H]2c3[nH]c4ccccc4c3CCN2S(=O)(=O)c2ccc(Cl)cc2)cc1`, the “% Inhibition” value is listed as 3% and the Z score is recorded as -0.64.
Taken in the same sequence, the figures for `CC(C)(C)c1nc(C#N)c(NC[C@@H](c2ccco2)N2CCCC2)o1` were 1% and -0.11.
In the same order, the values of `Cc1cc(-c2ccccc2)nc2oc3c(N4CCOCC4)ncnc3c12` are -44% and 5.19.
As to `COc1ccc(CCNC(=O)C[C@H](c2ccc(C(C)(C)C)cc2)c2c[nH]c3ccccc23)cc1OC`, the “% Inhibition” value is given as -10% and the Z score was 1.32.
Taken in the same sequence, the figures for `COCc1nc(C(=O)N[C@H](c2nccs2)C(F)(F)F)co1` were -1% and 0.13.
In the same order, the values of `Cc1ccc2ccc3cc(C(=O)Nc4ccc(C)c(C)c4)[nH]c3c2n1` are 1% and -0.22.
In the same order, the values of `O=C(CCOc1ccccc1)N(Cc1cccnc1)c1ccc(F)cc1` are -5% and 0.67.
For `Cc1nn(C)c(C)c1OC[C@@H](O)COC(C)C`, the “% Inhibition” value was 12% and the Z score was -2.16.
In the same order, the values of `CCC(C)C(NS(C)(=O)=O)C(=O)NCC1(c2ccccc2)CC1` (centres undefined) are -6% and 1.21.
In the same order, the values of `CC(C)CN(CC(C)C)C(=O)c1ccco1` are 2% and -0.32.
Taken in the same sequence, the figures for `CCC(c1cccs1)N1C(=O)[C@H]2CN(S(=O)(=O)c3c(C)noc3C)C[C@H]2C1=O` (some centres undefined) were -6% and 0.82.
Take `COC(=O)CCc1cncc(NC(=O)[C@](C)(N)c2ccc(S(C)(=O)=O)cc2)c1`: the “% Inhibition” value is -11% and the Z score came to 1.2.
For the compound `N#Cc1ccc(OCC=Cc2ccccc2)nc1`, the “% Inhibition” value is reported as -2% and the Z score came to 0.25.
Taken in the same sequence, the figures for `Cc1nc(C(C)(C)NC(=O)c2ccn(C)c2C)sc1C` were -6% and 0.78.
`CCN1C[C@H](CN(C)c2ccc(S(=O)(=O)C(F)F)cc2)Oc2ccccc21`: the “% Inhibition” value worked out at 0% and the Z score was -0.05.
In the case of `Clc1cnn([C@H]2CCN(Cc3cc4cccnc4o3)C2)c1`, the “% Inhibition” value is on record as 0% and the Z score is on record as -0.01.
Taken in the same sequence, the figures for `Cc1cc(CC(=O)N2CCNC[C@H]2c2ccncc2)no1` were 19% and -2.43.
In the same order, the values of `CC(=O)N(C)c1nc2ccccc2n(CC(=O)N2CCc3ccccc32)c1=O` are -4% and 0.66.
Taken in the same sequence, the figures for `Cc1cc(NC(=O)COC(=O)c2ccccn2)no1` were -6% and 1.17.
As for `CCCC[C@H](CC)CNC(=O)c1cccnc1OCC`, the “% Inhibition” value is recorded as -4% and the Z score is 0.44.
As for `Cn1cc(N2C(=O)C[C@H](N(Cc3ccccc3)C3CC3)C2=O)cn1`, the “% Inhibition” value came to 3% and the Z score was -0.44.
Taken in the same sequence, the figures for `CCn1cc(S(=O)(=O)NC2CC(C)(OC)C2(C)C)cn1` (centres undefined) were -9% and 1.22.
Taken in the same sequence, the figures for `Cc1cc(CS(=O)(=O)CC(=O)NCC2CC2)no1` were -5% and 0.8.
`O=C(NC1CCCCC1)[C@@H](c1ccc(Cl)cc1)N1CCCCC1`: the “% Inhibition” value is recorded as -2% and the Z score was found to be 0.31.
With `CC1(C)CNC[C@@H](NC(=O)OC(C)(C)C)C1`, the “% Inhibition” value was -9% and the Z score is reported as 1.07.

(Values after ChEMBL document CHEMBL4888484, “Replenishing the malaria drug discovery pipeline: Screening and hit evaluation of the MMV Hit Generation Library 1 (HGL1) against asexual blood stage Plasmodium falciparum ,using a nano luciferase reporter read-out” (2022).)
